PubChem BioAssay (NCATS)
The shares of active, inactive and inconclusive entries below differ from those in the screen. For part of these data: Potencies of inconclusive entries are doubtful fits and often do not repeat. The source made the active and inactive calls. Unless noted, calls come from the whole dose curve; as a rule, active = well fitted curve in the direction sought with a large enough effect; inconclusive = small, poorly fitted or top-dose-only effect, or another doubt; inactive = no such curve, though single readings can be large; an effect the other way counts as inactive or inconclusive.

How the values were obtained:
[1] = AP1 Signaling Pathway (AID 357; active = well fitted curve in either direction with a large enough effect, not every such curve was filed as active; inconclusive = small, poorly fitted or top-dose-only effect, or another doubt;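 note: ME-180 reporter cells stimulated with EGF at its EC50 level; top concentration of the series differs between compounds; % is set by controls: 0 for no effect and ±100 for the full control effect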); details: ME-180 AP-1-bla reporter, EGF-induced, beta-lactamase ratio, 5 h; at 7.69 µM (top of the series) unless noted
In short: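 Modulation of EGF-driven AP-1 transcription was assessed with a beta-lactamase reporter in ME-180 cells. Compound and EC50 EGF were co-incubated 5 hours at 37 °C before 2.5-hour CCF4 loading at room temperature and dual-emission reading.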

[2] = NFAT Signaling Pathway (AID 444; active = well fitted curve in either direction with a large enough effect, not every such curve was filed as active; inconclusive = small, poorly fitted or top-dose-only effect, or another doubt;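 note: carbachol stimulus at about its EC50 of 1 µM final; % is set by controls: 0 for no effect and ±100 for the full control effect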); details: Jurkat NFAT-bla M1, carbachol, beta-lactamase ratio, 5 h; at 7.69 µM (top of the series) unless noted
In short: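 Jurkat cells with NFAT-driven β-lactamase reporter and co-expressed M1 receptor, stimulated with carbachol (final 1 uM, ~EC50), compound titration, 5 h at 37 °C. CCF4 loaded 1 h at RT; 460/530 nm ratio gave %activity and AC50.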

[3] = molecular target: 3',5'-cyclic-AMP phosphodiesterase 4B (Homo sapiens) (UniProt Q07343); assay: qHTS Assay for Inhibitors of PDE-IV (AID 607; active = well fitted activation curve with a large enough effect in the main read-out, with a control signal flat, not every such curve was filed as active; inconclusive = small, poorly fitted or top-dose-only effect, or effect the other way, or a change in a side signal; note: % of control where 0% means no effect); details: HEK293 ACTOne CNG channel cells, membrane potential fluorescence; activation (PDE inhibition): at 22.9 µM (top of the series)
Sequence of UniProt Q07343 (Q07343 whole entry, looked up): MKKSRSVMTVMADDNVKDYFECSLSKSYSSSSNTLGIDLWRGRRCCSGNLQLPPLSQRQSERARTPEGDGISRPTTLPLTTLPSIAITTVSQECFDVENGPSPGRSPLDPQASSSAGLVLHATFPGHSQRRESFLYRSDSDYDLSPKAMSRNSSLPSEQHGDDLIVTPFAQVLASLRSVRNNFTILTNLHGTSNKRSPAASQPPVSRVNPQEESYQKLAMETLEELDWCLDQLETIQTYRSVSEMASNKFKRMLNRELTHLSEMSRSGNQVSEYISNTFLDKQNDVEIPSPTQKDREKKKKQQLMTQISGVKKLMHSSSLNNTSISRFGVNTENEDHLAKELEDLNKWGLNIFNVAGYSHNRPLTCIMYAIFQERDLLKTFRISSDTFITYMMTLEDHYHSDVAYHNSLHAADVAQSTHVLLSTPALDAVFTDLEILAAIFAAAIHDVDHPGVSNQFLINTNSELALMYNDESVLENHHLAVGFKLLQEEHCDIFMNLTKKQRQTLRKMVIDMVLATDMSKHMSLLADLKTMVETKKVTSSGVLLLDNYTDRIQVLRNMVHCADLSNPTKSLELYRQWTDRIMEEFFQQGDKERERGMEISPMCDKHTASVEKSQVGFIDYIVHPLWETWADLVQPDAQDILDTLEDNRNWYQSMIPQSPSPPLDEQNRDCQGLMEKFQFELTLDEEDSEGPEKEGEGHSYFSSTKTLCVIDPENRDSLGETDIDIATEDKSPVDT
In short: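 The readout is membrane depolarisation from a cAMP-sensing CNG channel, detected with a potential dye at ex 535/em 590. Cells were HEK293-derived (endogenous PDE-IV) at 1000 cells/well, titrated up to 22.9 uM final.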

[4] = qHTS Assay for Identification of Small Molecule Agonists for Hypoxia Response Element Signaling Pathway (AID 914; active = well fitted activation curve with a large enough effect in the signal ratio, with a control signal flat, not every such curve was filed as active; inconclusive = small, poorly fitted or top-dose-only effect, or effect the other way, or a change in a side signal; the % refers to the signal ratio; note: top concentration of the series differs between compounds; % of control where 0% means no effect); details: ME-180 (cervical carcinoma) HRE-bla reporter, beta-lactamase ratio, CoCl2, 17 h; activation: hits give high values
In short: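 Cells were plated overnight, pin-dosed with compound in a titration series, co-stimulated with EC50 CoCl2 and incubated 17 hours at 37 degrees Celsius. CCF4 substrate was then loaded, and AC50 values came from the 460nm/530nm ratio.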

[5] = Primary qHTS for small molecule stabilizers of the endoplasmic reticulum resident proteome: Secreted ER Calcium Modulated Protein (SERCaMP) assay (AID 1508630); details: SH-SY5Y GLuc-SERCaMP (Gaussia luciferase released on ER calcium loss) secretion, thapsigargin, luminescence; activity change, negative = inhibition: at 38.4 µM (top of the series) unless noted; note: potency is the fitted concentration of half-maximal effect; for activity change, negative = inhibition: % is set by controls: 0 for no effect and ±100 for the full control effect
In short: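 GLuc-SERCaMP-expressing SH-SY5Y cells, pretreated 16 h with compound, are challenged with thapsigargin to empty ER calcium stores; after 4 h, coelenterazine is added directly to the medium and luminescence is imaged.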

[6] = molecular target: Rap guanine nucleotide exchange factor 3 (Homo sapiens) (UniProt O95398); assay: Confirmatory qHTS for agonist of cAMP-regulated guanine nucleotide exchange factor 3 (EPAC1) (AID 1645881); details: EPAC1 Rap1B BODIPY-GDP exchange fluorescence; activation: at 154 µM (top of the series), 100% = cAMP control response; note: potency is the fitted concentration of half-maximal effect; nearly all actives have a fitted effect of over 75% in size
Sequence of UniProt O95398 (O95398 whole entry, looked up): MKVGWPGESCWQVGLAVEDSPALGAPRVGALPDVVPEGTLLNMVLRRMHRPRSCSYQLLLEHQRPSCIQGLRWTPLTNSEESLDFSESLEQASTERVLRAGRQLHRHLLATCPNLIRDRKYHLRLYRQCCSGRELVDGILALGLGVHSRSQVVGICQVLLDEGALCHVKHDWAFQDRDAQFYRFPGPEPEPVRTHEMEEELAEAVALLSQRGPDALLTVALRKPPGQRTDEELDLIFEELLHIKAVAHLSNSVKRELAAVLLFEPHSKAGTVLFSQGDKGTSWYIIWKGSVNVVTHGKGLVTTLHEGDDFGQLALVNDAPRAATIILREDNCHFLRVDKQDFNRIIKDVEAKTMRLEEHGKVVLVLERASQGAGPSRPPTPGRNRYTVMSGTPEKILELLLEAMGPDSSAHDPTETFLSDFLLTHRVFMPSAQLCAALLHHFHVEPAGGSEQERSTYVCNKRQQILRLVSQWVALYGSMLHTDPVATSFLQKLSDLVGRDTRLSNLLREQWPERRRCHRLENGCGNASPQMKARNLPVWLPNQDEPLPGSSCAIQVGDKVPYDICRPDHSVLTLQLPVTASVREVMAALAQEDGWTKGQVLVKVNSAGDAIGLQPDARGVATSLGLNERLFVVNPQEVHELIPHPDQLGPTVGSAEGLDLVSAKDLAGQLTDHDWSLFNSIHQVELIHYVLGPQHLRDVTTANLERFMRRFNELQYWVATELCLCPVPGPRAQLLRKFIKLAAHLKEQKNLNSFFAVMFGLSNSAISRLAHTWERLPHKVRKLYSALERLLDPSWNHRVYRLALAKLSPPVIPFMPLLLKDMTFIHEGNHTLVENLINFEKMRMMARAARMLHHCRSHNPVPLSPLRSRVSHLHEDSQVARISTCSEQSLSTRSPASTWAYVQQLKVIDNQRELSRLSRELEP

[7] = molecular target: Rap guanine nucleotide exchange factor 4 (Homo sapiens) (UniProt Q8WZA2); assay: Confirmatory qHTS for agonist of cAMP-regulated guanine nucleotide exchange factor 4 (EPAC2) (AID 1645884); details: EPAC2 GEF activity, Rap1B-BODIPY-GDP fluorescence; activation: at 154 µM (top of the series), percent relative to cAMP agonist control;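 note: nucleotide exchange releases bodipy-GDP from Rap1 and this lowers its fluorescence; potency is the fitted concentration of half-maximal effect; nearly all actives have a fitted effect of over 65% in size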
Sequence of UniProt Q8WZA2 (Q8WZA2 whole entry, looked up): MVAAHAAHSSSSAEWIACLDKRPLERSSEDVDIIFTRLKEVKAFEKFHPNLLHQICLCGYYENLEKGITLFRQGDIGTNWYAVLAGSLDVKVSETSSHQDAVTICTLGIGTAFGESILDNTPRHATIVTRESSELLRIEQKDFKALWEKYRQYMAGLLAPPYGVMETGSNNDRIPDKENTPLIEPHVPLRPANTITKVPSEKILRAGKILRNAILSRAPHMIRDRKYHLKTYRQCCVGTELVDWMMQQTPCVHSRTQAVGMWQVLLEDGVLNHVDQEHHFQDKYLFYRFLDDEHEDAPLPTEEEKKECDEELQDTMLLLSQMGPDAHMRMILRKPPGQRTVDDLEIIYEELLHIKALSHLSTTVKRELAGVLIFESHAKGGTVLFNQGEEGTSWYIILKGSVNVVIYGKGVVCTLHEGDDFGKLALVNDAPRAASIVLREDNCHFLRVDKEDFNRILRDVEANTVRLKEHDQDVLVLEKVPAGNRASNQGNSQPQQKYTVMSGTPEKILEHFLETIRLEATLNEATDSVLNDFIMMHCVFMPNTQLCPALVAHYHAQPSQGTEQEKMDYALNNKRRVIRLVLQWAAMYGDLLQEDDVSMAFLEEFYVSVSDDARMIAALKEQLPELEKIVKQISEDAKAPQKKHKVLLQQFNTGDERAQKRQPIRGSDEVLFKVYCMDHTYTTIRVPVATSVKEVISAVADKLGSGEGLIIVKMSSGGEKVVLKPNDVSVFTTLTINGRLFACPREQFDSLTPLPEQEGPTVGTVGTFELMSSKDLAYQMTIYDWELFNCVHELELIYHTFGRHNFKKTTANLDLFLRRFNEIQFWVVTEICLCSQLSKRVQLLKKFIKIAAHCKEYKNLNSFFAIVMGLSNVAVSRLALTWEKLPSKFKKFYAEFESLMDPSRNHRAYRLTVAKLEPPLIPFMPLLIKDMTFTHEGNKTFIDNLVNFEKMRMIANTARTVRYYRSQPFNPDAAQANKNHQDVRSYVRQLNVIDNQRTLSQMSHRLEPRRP

[8] = molecular target: Rap guanine nucleotide exchange factor 4 (Homo sapiens) (UniProt Q8WZA2); assay: Confirmatory qHTS for antagonist of cAMP-regulated guanine nucleotide exchange factor 4 (EPAC2) (AID 1645885); details: activity change, negative = inhibition: at 12.7 µM (top of the series) unless noted; note: nearly all actives have a fitted effect of over 25% in size; note: potency is the fitted concentration of half-maximal effect; for activity change, negative = inhibition: % is set by controls: 0 for no effect and ±100 for the full control effect
[9] = molecular target: Rap guanine nucleotide exchange factor 3 (Homo sapiens) (UniProt O95398); assay: Confirmatory qHTS for antagonist of cAMP-regulated guanine nucleotide exchange factor 3 (EPAC1) (AID 1645880); details: EPAC1 Rap1B-BODIPY-GDP exchange, fluorescence; activity, negative = inhibition: at 115 µM (top of the series); note: potency is the fitted concentration of half-maximal effect; nearly all actives have a fitted effect of over 55% in size
In short: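 Nucleotide exchange uses 100 nM EPAC1, 250 nM RAP1B-BODIPY-GDP and 50 uM GDP, with compounds in a concentration-titration series. After 5 min at room temperature, fluorescence (480 nm ex/540 nm em) is read every 5 min for 30 min. Data are normalized to control ATA and DMSO.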
Tags give direction and shape of the fitted curve.

COc1cccc(Nc2ncc3nc(-c4cc(F)cc(F)c4)c(=O)n(CCC#N)c3n2)c1
inactive: Potency [3] | Potency [8]
inconclusive: activity change, negative = inhibition [1] -43.4% [inhibitor] | activity change, negative = inhibition [2] -41.6% [inhibitor] | activation [4] -29.8% | Potency [5] 12.6 µM [inhibitor, single point] | Potency [6] 63 µM [activator, partial curve, poor fit] | Potency [7] 28.1 µM [activator, partial curve, poor fit]

O=C(c1cc(C(F)(F)F)cc(C(F)(F)F)c1)N1CCC2(CCCN(Cc3nccs3)C2)CC1
inactive: Potency [5]
inconclusive: activity change, negative = inhibition [2] -59.4% [inhibitor] | Potency [9] 49.8 µM [inhibitor, partial curve] | Potency [8] 35 µM [inhibitor, partial curve]
